The text below walks through data of article PMC7956344, “Structure Elucidation and Cholinesterase Inhibition Activity of Two New Minor Amaryllidaceae Alkaloids” (Molecules, 2021).

Like-named read-outs stand apart in the source and are kept apart here.

Usually IC50 stands for the midpoint of a concentration-inhibition curve. The inhibition is the percentage by which the read-out fell short of the control.

The target in experiment [1] is T1, human acetylcholinesterase (hAChE) (Homo sapiens, UniProt P22303). Briefly: biochemical. The settings on record: for IC50: mean ± SEM of three independent measurements, each in triplicate; for % Inhibition hAChE ± SEM / inhibition at 100 µM: tested at 100 µM compound concentration; for % Inhibition hAChE ± SEM: 100 µM; for inhibition at 100 µM: read-out: % Inhibition hAChE ± SEM.

Experiment [2] concerns the target T1, human acetylcholinesterase (hAChE). Particulars: previously isolated narcikachnine-type alkaloids, cited from earlier work.

For `COc1cc2c(cc1O)[C@@H](O)O[C@@H]1CC=C3CCN(C)[C@H]3[C@H]21` [9-O-demethyllycorenine (1), 9-O-demethyllycorenine], in experiment [1], the IC50 was above 100 µM, the “% Inhibition hAChE ± SEM” value is “almost devoid of cholinesterase inhibitory activity” and the inhibition at 100 µM was 3.1 ± 1.2%.

In the case of `COc1cc(-c2cccc3c2N(C)CC3)c(CN2CC[C@@]34C=C[C@H](O)C[C@@H]3Oc3c(OC)ccc(c34)C2)cc1O` [narciabduliine (2), narciabduliine], in experiment [1], 3.29 ± 0.73 µM corresponded to half-maximal inhibition (IC50), the “% Inhibition hAChE ± SEM” value is 94.7 ± 0.7% and the inhibition at 100 µM was above 90%.

With `COc1ccc2c3c1OC1CC(O)CCC31CCN(Cc1cc3c(cc1-c1cccc4ccn(C)c14)OCO3)C2` (centres unmarked) [narcipavline], the results for the IC50 in experiment [2] and in experiment [2] (listed as Narcipavline) were 208 ± 37 µM and above 200 µM, respectively.
